Test results published in PubChem BioAssay AID1466 (National Center for Advancing Translational Sciences (NCATS), 2008).
The whole screen tested about 200,000 compounds, of which about 10 (0.005%) were called active. This list was built around the results that the source calls inconclusive (neither active nor inactive); the mix of calls is not that of the screen. Calls come from the whole dose curve; as a rule, active = well fitted inhibition curve with a large enough effect; inconclusive = small, poorly fitted or top-dose-only effect, or effect the other way, or another doubt; inactive = no such curve, though single readings can be large or run the other way. Potencies beside an inconclusive call are fits to weak or partial responses and may not hold up.

target: Lysosomal alpha-glucosidase (Homo sapiens) (UniProt P10253); test: qHTS Assay for Inhibitors of Human alpha-Glucosidase as a Potential Chaperone Treatment of Pompe Disease; settings: purified human GAA, 4-MU-alpha-glucoside fluorescence; activity change, negative = inhibition: at 76.9 µM (top of the series) unless noted;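 for activity change, negative = inhibition: plate controls were uninhibited enzyme wells for no effect and no-enzyme background for full effect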
How it was run: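 Human alpha-glucosidase, 4 nM, pre-mixed with test compounds before 400 uM 4-methylumbelliferyl substrate; 20 min room temperature at pH 5.0. Fluorescence read after pH 10 stop; AC50 values from Hill-equation fits.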
Potency is the fitted concentration of half-maximal effect; tags give direction and shape of the fitted curve.

Potency, inconclusive:
COc1cccc(-c2cc(C(F)(F)F)n3ncc(S(=O)(=O)c4ccccc4)c3n2)c1 28.2 µM [activator, single point]
COc1ccccc1-c1nc(C#N)c(NCc2ccc(F)cc2)o1 44.7 µM [inhibitor, single point]
COCCn1nnnc1C(c1cccs1)N1CCN(c2nc3ccccc3s2)CC1 (stereo unspecified) 31.6 µM [inhibitor, partial curve, poor fit]
COc1c(C)cc(C(=O)C2CCCN(Cc3cnc(N4CCOCC4)s3)C2)cc1C (stereo unspecified) 56.2 µM [inhibitor, single point]
Cc1noc(C)c1COc1ccc(C(=O)O)cc1 1.41 µM [activator, full curve, poor fit]
CCOC(=O)c1cc(=O)n(Cc2ccccc2C)c2ccccc12 7.94 µM [inhibitor, full curve]
Cc1nn(Cc2ccc(C(=O)N3c4ccc(F)cc4CCC3C)o2)c(C)c1Br (stereo unspecified) 50.1 µM [inhibitor, partial curve]
OCCCNCc1ccc(Cl)cc1Cl 0.178 µM [inhibitor, full curve, poor fit]
Cc1c(C)n(C)c2ccc(C(=O)NCc3cccs3)cc12 28.2 µM [inhibitor, single point]
CCCCn1nc2cc(C(=O)NCc3ccc4c(c3)OCO4)ccc2c1OCC 56.2 µM [inhibitor, single point]
CCn1c(SCC(=O)Nc2ccc(OC)cc2)nc2nc3c(cc2c1=O)COC(C)(C)C3 0.178 µM [inhibitor, partial curve, poor fit]
CN1C(C(=O)Nc2ccccn2)=C(O)c2sccc2S1(=O)=O 1 µM [inhibitor, full curve]
Nc1nonc1N/N=C/c1c(O)ccc2ccccc12 17.8 µM [inhibitor, partial curve]
COc1ccc(CNC(=O)C(c2ccco2)N(Cc2cccs2)C(=O)Cc2cccs2)cc1 (stereo unspecified) 10 µM [inhibitor, partial curve]
CC12CCC(=O)N1C(C(=O)Nc1cccc3ccccc13)CS2 (stereo unspecified) 7.08 µM [inhibitor, single point]
Cc1cc(NCCN2CCCCC2)n2c(nc3ccccc32)c1C#N 56.2 µM [activator, single point]
Cc1cc(C)c(NC(=O)CSc2nc(COc3ccccc3)nc3ccccc23)c(C)c1 56.2 µM [inhibitor, single point]
CCOc1ccc2[nH]c(=O)c(C(c3nnnn3C3CCCCC3)N3CCN(C)CC3)cc2c1 (stereo unspecified) 22.4 µM [activator, single point]
Cc1ccc(S(=O)(=O)N2CCN(C(=O)CSc3nc4ccccc4o3)C2)cc1 10 µM [inhibitor, full curve]
Cc1cc(S(=O)(=O)N2CCCC2)ccc1OCC(=O)NC1CCCC1 7.08 µM [inhibitor, single point]
Cc1ccc(NCc2nnc(SCC(=O)c3ccccc3)n2Cc2ccco2)c(C)c1 50.1 µM [inhibitor, single point]
O=C(CCc1nnc(Cc2ccc(-c3ccccc3)cc2)o1)NCCc1cccnc1 11.2 µM [inhibitor, single point]
CCOC(=O)c1c(C)oc2cc(Br)c(OC(C)C(=O)OCC)cc12 (stereo unspecified) 28.2 µM [inhibitor, partial curve, poor fit]
CC(=O)c1cc2c(cc1NC(=O)CN1CCN(c3cccc(C(F)(F)F)c3)CC1)OCO2 12.6 µM [inhibitor, single point]
O=C(NCc1ccccc1)c1ccccc1CO 11.2 µM [inhibitor, single point]
CCOc1cc(/C=C/c2nc3cc(C)c(C)cc3s2)ccc1OCC(=O)N1CCOCC1 50.1 µM [inhibitor, single point]
COc1cccc2[nH]c3c(N4CCCCC4)ncnc3c12 12.6 µM [inhibitor, single point]
CCOC(=O)N1CCN(S(=O)(=O)c2ccc(OCC)c3ccccc23)CC1 20 µM [inhibitor, single point]
C/C(CCN1CCc2nc(-c3ccccc3)c(-c3ccccc3)cc2C1)=N\O[C@@H](C)c1cc(-c2c(C)cc(C)cc2C)no1 25.1 µM [inhibitor, partial curve]
COc1ccc(-c2cc(=O)n(-c3nc4ccccc4[nH]3)[nH]2)cc1 56.2 µM [inhibitor, single point]

Potency, inactive:
CCCCCCC(=O)N(O)C1CC(=O)N(c2ccc(Br)cc2)C1=O (stereo unspecified)
N#Cc1sc2nc(-c3cccs3)cc(-c3ccc(Cl)cc3)c2c1N
C=CCn1cc(/C=N/Nc2nc3ccccc3[nH]2)c2ccccc21
COc1ccc(NC(=S)Nc2ccc3nccnc3c2)cc1

Activity change, negative = inhibition, inconclusive:
COC(=O)c1c(-c2ccccc2)noc1C 16.3% [activator]
Cc1ccc(N(CC(=O)NC(C)(C)C)C(=O)CS(=O)CC(=O)Nc2ccc3c(c2)OCO3)cc1 (stereo unspecified) 12.6% [activator]
CCc1ccc2oc(=O)cc(CN3CCC(C)CC3)c2c1 -19.9% [inhibitor]
CC1=C(C)CC(C(=O)N2CCN(C/C=C/c3ccccc3)CC2)C(C(=O)O)C1 (stereo unspecified) 15.6% [activator]
CCOC(=O)C1(Cc2ccc(OC)cc2)CCN(C(=O)CCc2cccnc2)CC1 7.59% [activator]
COC(=O)c1cc2c(ccn2C)n1C 15.5% [activator]
COC(=O)C12CCC(C)(c3nc4ccccc4nc31)C2(C)C (stereo unspecified) 17.4% [activator]
